In all, about 310,000 compounds went through this assay and about 14,000 (4.5%) showed an effect of 50% or more. Effects have a minus sign here. The list shows a part of the results.
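Further: peak tail current of the secondary pulse compared with the same well before compound.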

Chain of human ether-à-go-go-related gene (hERG) potassium channel (Q12809 whole entry, looked up): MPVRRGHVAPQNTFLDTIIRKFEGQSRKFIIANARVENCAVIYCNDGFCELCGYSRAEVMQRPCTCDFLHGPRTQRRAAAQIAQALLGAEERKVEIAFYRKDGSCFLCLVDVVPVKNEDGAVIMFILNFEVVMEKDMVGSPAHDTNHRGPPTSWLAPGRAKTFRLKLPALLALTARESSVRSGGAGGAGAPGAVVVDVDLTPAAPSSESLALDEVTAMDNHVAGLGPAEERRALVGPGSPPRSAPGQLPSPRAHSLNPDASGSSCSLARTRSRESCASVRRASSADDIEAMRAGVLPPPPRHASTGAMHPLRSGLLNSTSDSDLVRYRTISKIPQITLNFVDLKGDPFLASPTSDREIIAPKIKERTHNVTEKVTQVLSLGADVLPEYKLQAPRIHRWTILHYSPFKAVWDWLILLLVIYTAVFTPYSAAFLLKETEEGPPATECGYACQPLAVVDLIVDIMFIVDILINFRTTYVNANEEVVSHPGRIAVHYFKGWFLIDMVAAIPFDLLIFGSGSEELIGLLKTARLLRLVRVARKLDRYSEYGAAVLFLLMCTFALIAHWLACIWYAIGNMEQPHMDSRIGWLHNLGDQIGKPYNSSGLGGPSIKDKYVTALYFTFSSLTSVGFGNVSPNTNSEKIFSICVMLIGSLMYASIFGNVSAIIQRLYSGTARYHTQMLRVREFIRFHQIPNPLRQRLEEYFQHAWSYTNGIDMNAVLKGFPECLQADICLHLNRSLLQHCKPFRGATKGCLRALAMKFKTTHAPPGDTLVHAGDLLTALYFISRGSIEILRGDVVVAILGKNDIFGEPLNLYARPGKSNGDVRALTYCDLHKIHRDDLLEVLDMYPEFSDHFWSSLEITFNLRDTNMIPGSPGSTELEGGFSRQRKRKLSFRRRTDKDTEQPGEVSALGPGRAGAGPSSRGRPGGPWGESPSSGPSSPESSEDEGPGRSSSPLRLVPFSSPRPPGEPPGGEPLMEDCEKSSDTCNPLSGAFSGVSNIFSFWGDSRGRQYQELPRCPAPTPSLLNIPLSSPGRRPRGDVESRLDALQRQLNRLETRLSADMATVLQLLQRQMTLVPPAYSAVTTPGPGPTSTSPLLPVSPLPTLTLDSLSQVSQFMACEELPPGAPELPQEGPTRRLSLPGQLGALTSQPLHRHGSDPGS

The test concerns the target human ether-à-go-go-related gene (hERG) potassium channel (human, UniProt Q12809). Nature of the test: primary screen, population patch clamp on CHO cells stably expressing hERG.
With `CCc1ccc(-c2nc(SCC(=O)NC3CCS(=O)(=O)C3)n[nH]2)cc1` (centres unmarked), the “hERG current change (%, negative = inhibition) at 10uM” value was 4.84%.
Then `COCC(C)Nc1ncnc2c1cnn2-c1ccc(Cl)cc1` (centres unmarked), with 2.94%.
For `Cc1cccc(C)c1OCCCN1CCCC1`, the “hERG current change (%, negative = inhibition) at 10uM” value is -1.78%.
For `COc1ccc(CN(Cc2cccnc2)C(=S)NCCc2ccccc2)cc1OC.O=C(O)C(=O)O`, the “hERG current change (%, negative = inhibition) at 10uM” value is on record as -50.5%.
The value for `Cc1cc2ccccc2n1CCNC(=O)c1ccc(S(=O)(=O)N2CCOCC2)cc1` was 3.41%.
Then `CCOC(=O)c1c(C)n(C)c2ccc(OC(C)=O)cc12`, with -7.24%; and `COc1ccccc1CNC(=O)C(=O)NCC1OCCCN1S(=O)(=O)c1cccs1` (centres unmarked), with 7.62%; and `CCc1[nH]nc(C(=O)N2CCCC(C(=O)c3cccc(C(F)(F)F)c3)C2)c1C` (centres unmarked), with -10.4%.
Then `Cc1ccc(OCC(=O)N/N=C/c2cn(C)c3ccccc23)cc1`, with 10.2%; and `CCCCNC(=O)CNC(=S)N(Cc1ccc(C)cc1)Cc1ccco1`, with -28.9%; and `O=C(CCn1cncn1)N1CCCC(N2CCN(c3cccc(C(F)(F)F)c3)CC2)C1` (centres unmarked), with -35.8%.
As to `CC12CCCCC1=[N+]([O-])CN2O` (centres unmarked), the “hERG current change (%, negative = inhibition) at 10uM” value is recorded as 9%.
With `Cc1nc(/C(N)=N/OC(=O)c2ccc(Cl)cc2)c(C(F)(F)F)o1`, the “hERG current change (%, negative = inhibition) at 10uM” value is -7.21%.
The value for `Cc1cc(Cl)c(OCCCNC2CCCC2)c(Br)c1.O=C(O)C(=O)O` was -56.9%.
`CS(=O)Cc1cc(Oc2ccccc2)nc(-c2ccncc2)n1` (centres unmarked): the “hERG current change (%, negative = inhibition) at 10uM” value is -16.5%.
The value for `CC1N=C2c3ccccc3N=C(SCc3cc(=O)n4cc(Cl)ccc4n3)N2C1=O` (centres unmarked) was -63.6%; that for `CCn1c(SCc2ccccc2)nc2ccccc2c1=O` was 2.76%.
For `O=c1oc2ccccc2c(O)c1Sc1ccc(Cl)cc1`, the “hERG current change (%, negative = inhibition) at 10uM” value amounted to 6.16%.
The value for `c1ccc(Oc2nc(-c3ccccn3)nc3ccccc23)cc1` was -5.8%.
Regarding `Cc1[nH][nH]c(=O)c1C(c1c(C)[nH][nH]c1=O)c1cn(Cc2ccc(F)cc2)c2ccccc12`, the “hERG current change (%, negative = inhibition) at 10uM” value is -21.3%.
On to `O=C(O)CCCNc1cc(N2CCC3(CC2)OCCO3)c2noc3c2c1C(=O)c1ccccc1-3`, for which the “hERG current change (%, negative = inhibition) at 10uM” value is recorded as -16.3%.
Then `O=C(CCNS(=O)(=O)c1ccccc1F)N1CCN(C/C=C/c2ccccc2)CC1`, with -47.8%; and `CC1CCN(c2c(NCC3CCC(C(=O)NC4CCCCCC4)CC3)c(=O)c2=O)CC1` (centres unmarked), with 6.29%; and `Nc1nnc(SCCCC(=O)c2ccc(Br)cc2)s1`, with 26.5%.
Take `CCCNCc1cc(OCC)c(OCC(=O)Nc2ccccc2)cc1Br`: the “hERG current change (%, negative = inhibition) at 10uM” value is recorded as -24.7%.
For `COc1cccc(NC(=O)C(NCCc2ccc(S(N)(=O)=O)cc2)c2ccccc2)c1` (centres unmarked), the “hERG current change (%, negative = inhibition) at 10uM” value is recorded as -35.2%.
Then `CCOC(=O)c1ccc(S(=O)(=O)NC2CCC(C)CC2)cc1` (centres unmarked), with -16.5%; and `CC(=O)c1ccc(NC(=O)C2CCCNC2=O)cc1` (centres unmarked), with 30.6%.
The value for `CCC(=Nc1ccc(OC)cc1OC)c1c(O)n(C2CCCCC2)c(=O)[nH]c1=O` was -5.51%; that for `Cc1ccc(N(Cc2cc3ccc(C)cc3[nH]c2=O)C(=O)c2ccco2)cc1` was -7.29%; that for `CCN(CC)c1ccc(NC(=O)Nc2cccc3ccccc23)cc1` was 7.7%.
The value for `COc1cccc(CN2CC(C(=O)NC3CCCCCC3)CCC2=O)c1` (centres unmarked) was 12.2%; that for `O=C(COc1ncnc2sccc12)NC1CCCc2ccccc21` (centres unmarked) was 9.25%; that for `CCc1cccc(OC2OC(CO)C(O)C(O)C2NC(C)=O)c1` (centres unmarked) was 0.684%.
`CC(=O)NCC1(O)CCCC(C)C1` (centres unmarked): the “hERG current change (%, negative = inhibition) at 10uM” value is on record as 15.8%.
On to `COC(=O)Nc1ccc(Cn2cc(C(F)(F)F)ccc2=O)cc1`, for which the “hERG current change (%, negative = inhibition) at 10uM” value is reported as 18.9%.
Then `Cc1cccc(N2CCN(C(=O)C3CCC(=O)N(Cc4ccccc4F)C3)CC2)c1C` (centres unmarked), with -29%; and `O=[N+]([O-])c1ccc2c(c1)c1ccccc1n2CCO`, with -11.4%; and `C=CCNC(=O)c1ccc(NC(=O)C2=CSCCO2)cc1`, with 5.18%.
Consider `COc1cc(C(=O)NCC(=O)NCC2COc3ccccc3O2)cc(OC)c1OC` (centres unmarked), for which the “hERG current change (%, negative = inhibition) at 10uM” value is reported as -4.95%.
As for `CC(NC(=O)c1ccccc1NC(=O)CN1CCc2ccccc2C1)c1ccccc1` (centres unmarked), the “hERG current change (%, negative = inhibition) at 10uM” value is recorded as 4.16%.
Take `c1ccc2c(c1)ncn2CCOCCOCCn1cnc2ccccc21`: the “hERG current change (%, negative = inhibition) at 10uM” value was -15.9%.
Then `Cc1cc(N2CCN(c3ccccc3)CC2)nc(-c2ccccc2)n1`, with -30.9%; and `CC(=O)N[C@@H](C)c1nc2ccccc2n1CCNC(=O)[C@H]1CCCN1c1nc(CN2CCCCC2)cs1`, with 4.85%.

Source of the values: PMC4336329 (PLoS ONE, 2015).
